Reference: PubChem BioAssay (NCATS)
This list was built around the results that the source calls inconclusive (neither active nor inactive); the mix of calls is not that of the screen. Potencies of inconclusive entries are doubtful fits and often do not repeat. The source made the active and inactive calls. Unless noted, the call rests on the fitted dose curve; in most records, active means well fitted curve in the direction sought with a large enough effect; inconclusive means small, poorly fitted or top-dose-only effect, or another doubt; inactive means no such curve, though single readings can be large; an effect the other way counts as inactive or inconclusive.

Key:
[1] = molecular target: Aldehyde dehydrogenase, mitochondrial (Homo sapiens) (UniProt P05091); experiment: qHTS for Inhibitors of the Aldehyde Dehydrogenase Family (ALDH2) Confirmatory screens (AID 2061303; active means well fitted inhibition curve with a large enough effect; inconclusive means small, poorly fitted or top-dose-only effect; inactive means no such curve, though single readings can be large or run the other way; title and protocol of this record describe different tests; further: nearly all actives have a fitted effect of over 45% in size); settings: ALDH inhibition qHTS; activity change, negative = inhibition: at 45.4 µM (top of the series)
[2] = qHTS for Inhibitors of the Aldehyde Dehydrogenase Family (ALDH1A2, ALDH1A3, ALDH2, ALDH3A1) (AID 2061307); settings: ALDH inhibition qHTS; activity change, negative = inhibition: at 50.3 µM (top of the series) unless noted; further: test system not described further here; nearly all actives have a fitted effect of over 50% in size
[3] = molecular target: Aldehyde dehydrogenase, mitochondrial (Homo sapiens) (UniProt P05091); experiment: qHTS for Inhibitors of the Aldehyde Dehydrogenase Family (ALDH2) Primary screen (AID 2061308); further: nearly all actives have a fitted effect of over 55% in size
[4] = molecular target: Retinaldehyde dehydrogenase 3 (Homo sapiens) (UniProt P47895); experiment: qHTS for Inhibitors of the Aldehyde Dehydrogenase Family (ALDH1A3) Confirmatory screens (AID 2061311); settings: activity change, negative = inhibition: at 46 µM (top of the series); further: nearly all actives have a fitted effect of over 60% in size
[5] = molecular target: Retinaldehyde dehydrogenase 3 (Homo sapiens) (UniProt P47895); experiment: qHTS for Inhibitors of the Aldehyde Dehydrogenase Family (ALDH1A3) Validation screen (AID 2061312); settings: ALDH1A3 enzyme inhibition qHTS validation, fluorescence; activity change, negative = inhibition: at 84.7 µM (top of the series); further: nearly all actives have a fitted effect of over 45% in size
[6] = molecular target: Retinal dehydrogenase 2 (Homo sapiens) (UniProt O94788); experiment: qHTS for Inhibitors of the Aldehyde Dehydrogenase Family (ALDH1A2) Confirmation screens (AID 2061314); settings: activity, negative = inhibition: at 45.9 µM (top of the series) unless noted; further: nearly all actives have a fitted effect of over 65% in size
Potency means the concentration at half of the fitted maximal effect; tags describe the fitted curve by direction and shape.

Row | SMILES | Potency [1] | Potency [2] | Potency [3] | Potency [4] | Potency [5] | Potency [6]
1 | N#Cc1c(-c2ccc(Cl)c([N+](=O)[O-])c2)no[n+]1[O-] | active: 2.83 µM | inconclusive: 3.16 µM [inhibitor, full curve, poor fit] | active: 0.398 µM | inconclusive: 25.2 µM [inhibitor, partial curve] |  | 
2 | O=c1nc(-c2ccccn2)sc2ccccc12 | inactive | inconclusive: 22.5 µM [inhibitor, partial curve] | active: 15.8 µM | inconclusive: 20.1 µM [inhibitor, partial curve] | active: 2.82 µM | inactive
3 | Cc1cc2c(N3CCCC3)nc(N3CCCC3)nc2n1C | inconclusive: 12.7 µM [inhibitor, partial curve] | inconclusive: 4 µM [inhibitor, partial curve] | inconclusive: 31.6 µM [inhibitor, single point] | active: 14.2 µM | inconclusive: 39.8 µM [inhibitor, partial curve, poor fit] | inconclusive: 8.96 µM [inhibitor, partial curve]
